In all, about 39,000 compounds went through this assay and about 220 (0.56%) showed activity. Some of the results follow.
Test system: Escherichia coli K-12 BW25113
Assay: relative growth (OD600 normalised to plate interquartile mean) (fraction); higher = less growth inhibition, active = 0.2 or less
Conditions: 50 µM; LB; incubation time: overnight (16-24 h)
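Note: static incubation at 37 °C against the wild-type strain, values averaged over two biological replicates.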

Which relative growth does the source give for `CCCc1nc(C(C)(C)O)c(C(=O)O)n1Cc1ccc(-c2ccccc2-c2nn[nH]n2)cc1` here?
Its relative growth is inactive: 1.08.

With `O=C(c1ccc(F)cc1)C1CCN(CCn2c(=O)[nH]c3ccccc3c2=O)CC1` as the compound, how does the relative growth read?
The relative growth was inactive: 0.928.

With `O=C(C[C@H]1CC[C@H]2[C@@H](COC[C@@H](O)CN2S(=O)(=O)c2ccc(Cl)cc2)O1)NCCN1CCCC1` as the compound, how does the relative growth read?
The relative growth was inactive: 1.01.

`COc1ccc(NC(=O)N(C)C[C@@H]2OCCCC[C@@H](C)Oc3ccc(NC(=O)Cc4ccccc4)cc3C(=O)N([C@H](C)CO)C[C@@H]2C)cc1` was tested. Which relative growth did it give?
Its relative growth is inactive: 0.996.

For `NCc1cnc(Nc2ccccc2)nc1`, which relative growth is on record?
The relative growth was inactive: 0.958.

For `O=C(CCCCCCC(=O)N/N=C/[C@H](O)[C@@H](O)[C@@H](O)[C@H](O)C(=O)O)NO`, which relative growth is on record?
The relative growth was inactive: 0.991.

Which relative growth does the source give for `O=C(O)/C=C\C(=O)Nc1cccc(C(=O)O)c1` here?
Its relative growth is inactive: 0.98.

With `C[C@@H]1CN([C@H](C)CO)C(=O)c2cc(/C=C/c3ccccc3)cnc2O[C@@H]1CN(C)C(=O)CN1CCOCC1` as the compound, how does the relative growth read?
The relative growth was inactive: 1.02.

`C[C@H](O)C#Cc1ccc2c(c1)O[C@H](CN(C)C(=O)c1ccncc1)[C@H](C)CN([C@@H](C)CO)S2(=O)=O` was tested. Which relative growth did it give?
The relative growth was inactive: 1.02.

How did the relative growth turn out when `CCNC(=O)C[C@H]1CC[C@@H]2[C@H](COc3ccc(NS(=O)(=O)c4ccccc4C)cc3C(=O)N2C)O1` was run?
Its relative growth is inactive: 1.

`C[C@H](CO)N1C[C@H](C)[C@@H](CN(C)Cc2ccc3c(c2)OCO3)Oc2ccc(NC(=O)C3CC3)cc2CC1=O` was tested. Which relative growth did it give?
The relative growth was inactive: 1.01.

Which relative growth does the source give for `CC[C@@H](O)C#CCN1CCN(C)CC1` here?
Its relative growth is inactive: 0.927.

`NC(=O)Cn1nnc(-c2ccccc2)n1` was tested. Which relative growth did it give?
Its relative growth is inactive: 0.979.

`COc1ccc(S(=O)(=O)N(C)C[C@H]2Oc3ncc(-c4ccncc4)cc3C(=O)N([C@H](C)CO)C[C@@H]2C)cc1` was tested. Which relative growth did it give?
The relative growth was inactive: 0.992.

Which relative growth does the source give for `C[C@H]1CCCCO[C@@H](CN(C)C(=O)Nc2ccccc2)[C@@H](C)CN([C@@H](C)CO)C(=O)c2cc(NC(=O)Nc3ccc(C(F)(F)F)cc3)ccc2O1` here?
Its relative growth is inactive: 1.04.

How did the relative growth turn out when `CC(C)NC(=O)N(C)C[C@@H]1OCc2cnnn2CCCC(=O)N([C@@H](C)CO)C[C@H]1C` was run?
The relative growth was inactive: 0.98.

`C[C@@H]1CN([C@@H](C)CO)C(=O)Cc2cc(NC(=O)Cn3cnnn3)ccc2O[C@H]1CN(C)CC1CCCCC1` was tested. Which relative growth did it give?
Its relative growth is inactive: 1.

Which relative growth does the source give for `C[C@H](CO)N1C[C@H](C)[C@@H](CN(C)Cc2ccc3c(c2)OCO3)Oc2c(NC(=O)C3CC3)cccc2C1=O` here?
Its relative growth is inactive: 0.99.

Which relative growth does the source give for `C[C@H]1CCCCO[C@@H](CN(C)C(=O)NC2CCCCC2)[C@@H](C)CN([C@@H](C)CO)C(=O)c2cc(NS(=O)(=O)c3cccs3)ccc2O1` here?
The relative growth was inactive: 1.02.

How did the relative growth turn out when `Cn1cc(S(=O)(=O)Nc2ccc3c(c2)OCCO3)c(=O)n(C)c1=O` was run?
Its relative growth is inactive: 0.989.

For `Cc1noc(C)c1S(=O)(=O)Nc1ccc2c(c1)C(=O)N([C@@H](C)CO)C[C@@H](C)[C@@H](CN(C)C(=O)Nc1ccc(C(F)(F)F)cc1)OCCCC[C@H](C)O2`, which relative growth is on record?
Its relative growth is inactive: 1.01.

`COc1ccc(NC(=O)N(C)C[C@H]2OCc3ccccc3-c3c(n(C)c4ccccc34)C(=O)N([C@@H](C)CO)C[C@H]2C)c(OC)c1` was tested. Which relative growth did it give?
The relative growth was inactive: 0.987.

For `Cc1ccc(/C=C(\CCC(=O)O)c2nc3ccccc3s2)cc1`, which relative growth is on record?
The relative growth was inactive: 1.

Which relative growth does the source give for `Cc1ccc(S(=O)(=O)N(C)C[C@H]2Oc3ncc(Br)cc3C(=O)N([C@H](C)CO)C[C@H]2C)cc1` here?
Its relative growth is inactive: 1.01.

Which relative growth does the source give for `COc1ccccc1NC(=O)N(C)C[C@H]1Oc2ncc(Br)cc2C(=O)N([C@H](C)CO)C[C@H]1C` here?
Its relative growth is inactive: 1.

For `Cn1cnc(S(=O)(=O)N2C[C@H](O)COC[C@@H]3O[C@H](CC(=O)NC4CCCC4)CC[C@H]32)c1`, which relative growth is on record?
Its relative growth is inactive: 1.02.

How did the relative growth turn out when `COc1ccc(NC(=O)N(C)C[C@H]2OCCCC[C@H](C)Oc3ccc(NC(=O)Nc4c(C)noc4C)cc3C(=O)N([C@H](C)CO)C[C@@H]2C)cc1` was run?
The relative growth was inactive: 0.994.

For `CC(C)C#Cc1cnc2c(c1)C(=O)N([C@H](C)CO)C[C@@H](C)[C@@H](CN(C)C(=O)c1ccc3c(c1)OCO3)O2`, which relative growth is on record?
The relative growth was inactive: 0.996.

With `O=C(CN1CCOCC1)N[C@@H]1CC[C@H](CCNC(=O)C2CCCCC2)O[C@H]1CO` as the compound, how does the relative growth read?
Its relative growth is inactive: 1.

Which relative growth does the source give for `O=c1ccn([C@@H]2O[C@H](COP(=O)(O)OP(=O)(O)OP(=O)(O)O)[C@@H](O)[C@H]2O)c(=O)[nH]1` here?
Its relative growth is inactive: 0.988.

Which relative growth does the source give for `C[C@H](CO)N1C[C@H](C)[C@H](CN(C)Cc2ccc(Cl)c(Cl)c2)Oc2c(NC(=O)c3nc4ccccc4s3)cccc2C1=O` here?
The relative growth was inactive: 1.

With `Cc1ccc(C(=O)C(C)CN2CCCCC2)cc1.Cl` (configuration not stated) as the compound, how does the relative growth read?
Its relative growth is inactive: 0.99.

`C[C@H]1CN([C@@H](C)CO)C(=O)CCCn2cc(nn2)CO[C@H]1CN(C)S(=O)(=O)c1ccc2c(c1)OCCCO2` was tested. Which relative growth did it give?
The relative growth was inactive: 0.975.

For `C[C@@H]1CN([C@H](C)CO)C(=O)c2cc(NC(=O)c3ccccc3)ccc2O[C@@H](C)CCCCO[C@@H]1CN(C)Cc1ccc(C(F)(F)F)cc1`, which relative growth is on record?
The relative growth was inactive: 1.04.

How did the relative growth turn out when `CCCNC(=O)N1C[C@@H](C)[C@H](OC)CN(C)C(=O)c2cc(NS(=O)(=O)CC(F)(F)F)ccc2OC[C@@H]1C` was run?
The relative growth was inactive: 0.989.

How did the relative growth turn out when `C[C@@H]1CN([C@H](C)CO)C(=O)c2cc(NC(=O)Nc3ccc(C(F)(F)F)cc3)ccc2O[C@@H](C)CCCCO[C@H]1CN(C)S(=O)(=O)c1ccc(Cl)cc1` was run?
Its relative growth is inactive: 1.03.

How did the relative growth turn out when `Cc1noc(C)c1NC(=O)N(C)C[C@@H]1Oc2c(NS(=O)(=O)c3ccccc3)cccc2C(=O)N([C@@H](C)CO)C[C@@H]1C` was run?
The relative growth was inactive: 1.

How did the relative growth turn out when `C[C@H](CO)N1C[C@H](C)[C@H](CN(C)C)Oc2cc(C#C[C@@H](C)O)ccc2S1(=O)=O` was run?
Its relative growth is inactive: 0.994.

Which relative growth does the source give for `C[C@@H](NC(=O)N(C)C[C@@H]1OCc2ccccc2-c2c(n(C)c3ccccc23)C(=O)N([C@@H](C)CO)C[C@@H]1C)c1ccccc1` here?
Its relative growth is inactive: 1.

`O=C(C[C@@H]1C=C[C@H](NC(=O)Nc2ccc3c(c2)OCO3)[C@@H](CO)O1)NCCCN1CCOCC1` was tested. Which relative growth did it give?
Its relative growth is inactive: 0.934.

`C[C@]12C=C[C@]3(CN(C4CC4)C(=O)C3[C@@H]1C(=O)O)O2` (some centres not stated) was tested. Which relative growth did it give?
The relative growth was inactive: 0.998.

With `CO[C@@H](CN(C)C(=O)c1ccc2c(c1)OCO2)[C@H](C)CN([C@H](C)CO)S(=O)(=O)c1ccc(C)cc1` as the compound, how does the relative growth read?
Its relative growth is inactive: 1.02.

How did the relative growth turn out when `C[C@@H]1CN([C@@H](C)CO)C(=O)c2cc(NS(=O)(=O)c3ccccc3)ccc2O[C@@H](C)CCCCO[C@@H]1CN(C)Cc1ccccc1` was run?
The relative growth was inactive: 0.992.

For `C[C@H](CO)N1C[C@H](C)[C@@H](CN(C)Cc2cccc(C(=O)O)c2)Oc2ncc(C#CCN(C)C)cc2C1=O`, which relative growth is on record?
The relative growth was inactive: 0.986.

Which relative growth does the source give for `CO[C@H]1O[C@H](CO)[C@@H](OC(=O)Nc2ccccc2-c2ccccc2)[C@H](OC(=O)Nc2ccccc2)[C@@H]1OC(=O)Nc1ccccc1` here?
Its relative growth is inactive: 1.03.

For `C[C@@H]1CCCCO[C@@H](CN(C)C(=O)Nc2ccc(F)cc2)[C@H](C)CN([C@@H](C)CO)C(=O)c2cc(NS(=O)(=O)c3cccs3)ccc2O1`, which relative growth is on record?
Its relative growth is inactive: 1.02.

Which relative growth does the source give for `C[C@@H]1CN([C@@H](C)CO)C(=O)c2cc(NC(=O)Nc3ccc4c(c3)OCO4)ccc2O[C@@H]1CN(C)S(C)(=O)=O` here?
The relative growth was inactive: 0.924.

`C[C@@H]1CCCCO[C@H](CN(C)S(=O)(=O)c2cn(C)cn2)[C@H](C)CN([C@H](C)CO)C(=O)c2cc(N(C)C)ccc2O1` was tested. Which relative growth did it give?
The relative growth was inactive: 1.

For `Cc1noc(C)c1NC(=O)N(C)C[C@H]1Oc2c(NC(=O)Nc3ccc(C(F)(F)F)cc3)cccc2C(=O)N([C@H](C)CO)C[C@H]1C`, which relative growth is on record?
Its relative growth is inactive: 0.97.

For `C[C@H]1CCCCO[C@@H](CN(C)Cc2ccc3c(c2)OCO3)[C@@H](C)CN([C@@H](C)CO)C(=O)c2cc(NC(=O)c3ccccc3)ccc2O1`, which relative growth is on record?
Its relative growth is inactive: 0.983.

How did the relative growth turn out when `CC(C)NC(=O)N(C)C[C@@H]1Oc2c(NC(=O)C3CCCCC3)cccc2C(=O)N([C@H](C)CO)C[C@@H]1C` was run?
Its relative growth is inactive: 0.986.

How did the relative growth turn out when `CC(C)NC(=O)Nc1cccc2c1O[C@H](CN(C)S(=O)(=O)c1ccc(Cl)cc1)[C@@H](C)CN([C@@H](C)CO)C2=O` was run?
Its relative growth is inactive: 1.01.

How did the relative growth turn out when `C[C@H](CO)N1C[C@H](C)[C@H](CN(C)C(=O)Nc2ccc(F)cc2)OCCCC[C@H](C)Oc2ccc(NS(=O)(=O)c3cccs3)cc2C1=O` was run?
Its relative growth is inactive: 1.01.

How did the relative growth turn out when `C[C@H](CO)N1C[C@H](C)[C@@H](CN(C)C(=O)Nc2ccccc2)Oc2ccc(NC(=O)C3CC3)cc2CC1=O` was run?
The relative growth was inactive: 1.01.

`COc1ccc(CN(C)C[C@H]2OCCCC[C@@H](C)Oc3ccc(NC(=O)Nc4ccc(F)cc4)cc3C(=O)N([C@@H](C)CO)C[C@@H]2C)cc1` was tested. Which relative growth did it give?
The relative growth was inactive: 0.988.

How did the relative growth turn out when `COc1cccc(OC)c1NC(=O)N1[C@@H]2CC[C@@H](C2)[C@H]1c1nc2cccc(OCc3ccc(F)cc3)c2[nH]1` was run?
Its relative growth is inactive: 0.987.

For `O=S(=O)(O)c1ccc2c(c1)cc(S(=O)(=O)O)c1nn(-c3ccc(/C=C/c4ccc(-n5nc6c(S(=O)(=O)O)cc7cc(S(=O)(=O)O)ccc7c6n5)cc4S(=O)(=O)O)c(S(=O)(=O)O)c3)nc12`, which relative growth is on record?
The relative growth was inactive: 1.03.

How did the relative growth turn out when `NC(=O)CSc1nc(N)cc(N)n1` was run?
Its relative growth is inactive: 0.985.

How did the relative growth turn out when `CCS(=O)(=O)Nc1ccc2c(c1)C(=O)N(C)[C@@H]1CC[C@@H](CC(=O)NCCOC)O[C@@H]1CO2` was run?
The relative growth was inactive: 0.999.

`C[C@H]1CN([C@@H](C)CO)C(=O)c2ccccc2-c2ccccc2CO[C@H]1CN(C)Cc1ccc(C(F)(F)F)cc1` was tested. Which relative growth did it give?
Its relative growth is inactive: 1.

How did the relative growth turn out when `C[C@@H]1CN([C@@H](C)CO)C(=O)Cc2cc(NS(=O)(=O)c3ccccc3)ccc2O[C@H]1CN(C)Cc1ccc(Cl)c(Cl)c1` was run?
Its relative growth is inactive: 1.04.

`Cc1ccc(S(=O)(=O)Nc2ccc3c(c2)C(=O)N([C@@H](C)CO)C[C@H](C)[C@H](CN(C)S(=O)(=O)c2cccs2)O3)cc1` was tested. Which relative growth did it give?
Its relative growth is inactive: 1.02.
